# Reference: the supplement of paper PMC3694890
# ± gives the uncertainty stated by the source. Some of the results follow. A small y stands for phosphotyrosine.
# Biological target: GRB2 (endogenous complexes from cell lysate), P62993
# Experiment: GRB2 complex binding differential signal (pY peptide minus Ala control peptide) (fluorescence intensity units); higher = stronger GRB2 complex binding
# Details: MCF7
# 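Note: phosphopeptide probes on the chip at 1–4 µM, lysate proteins bound in 20 mM Tris pH 7.0 buffer with 140 mM NaCl, 1% Triton X-100 and 5% glycerol.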
row,Binder,GRB2 complex binding differential signal
1,yASGAS [KBTBD10_587/A1],1400 ± 480
2,yVYIDP [KIT_568/A1],2.6 ± 260
3,yIDPTQ [KIT_570/A1],8830 ± 1700
4,yKNLLH [KIT_703/A1],50800 ± 6200
5,yCFAGK [ALK_1096/A1],256 ± 360
6,yMDMKP [KIT_721/A1],1590 ± 470
7,yVVKGN [KIT_823/A1],1850 ± 470
8,yDIMKT [KIT_900/A1],681 ± 260
9,ySNLAN [KIT_936/A1],38900 ± 4500
10,yVLSSR [KRCM_125/A1],2360 ± 750
11,yYPLKS [KRCM_173/A1],1880 ± 1100
12,yPLKSM [KRCM_174/A1],446 ± 820
13,yELGME [KS6B1_62/A1],301 ± 240
14,yISPRI [LCK_192/A1],25900 ± 6200
15,yQPQPG [LCK_505/A1],4280 ± 470
16,yEGQVS [ALK_1131/A1],1290 ± 500
17,yESPND [LCP2_113/A1],11600 ± 1600

row,Binder,GRB2 complex binding differential signal
1,yESPNE [LCP2_128/A1],5480 ± 3400
2,yEPPPS [LCP2_145/A1],4470 ± 1300
3,yIDRPP [LCP2_173/A1],2400 ± 1800
4,yFKKLN [LCP2_23/A1],2150 ± 610
5,yLLGNS [LMNA _646 /A1],179 ± 300
6,yRASYY [LTK_672/A1],358 ± 280
7,yYRRGD [LTK_676/A1],1410 ± 370
8,yRRGDR [LTK_677/A1],1240 ± 350
9,yYISPR [LYN_193/A1],2230 ± 510
10,yRKGGC [ALK_1282/A1],1220 ± 370
11,yYNNST [LYN_265/A1],10700 ± 1800
12,yAVVTR [LYN_306/A1],3480 ± 700
13,yIITEY [LYN_316/A1],145 ± 420
14,yVRDPT [LYN_32/A1],2390 ± 1400
15,yDIMKM [LYN_473/A1],1060 ± 280
16,yETEGI [MCM6_276/A1],2050 ± 820

# Same assay, conditions: MCF10A
row,Binder,GRB2 complex binding differential signal
1,yASGAS [KBTBD10_587/A1],2300 ± 960
2,yVYIDP [KIT_568/A1],83.1 ± 340
3,yIDPTQ [KIT_570/A1],4600 ± 620
4,yKNLLH [KIT_703/A1],7070 ± 2200
5,yCFAGK [ALK_1096/A1],165 ± 420
6,yMDMKP [KIT_721/A1],1150 ± 1600
7,yVVKGN [KIT_823/A1],1740 ± 650
8,yDIMKT [KIT_900/A1],883 ± 200
9,ySNLAN [KIT_936/A1],18500 ± 5100
10,yVLSSR [KRCM_125/A1],1290 ± 570
11,yYPLKS [KRCM_173/A1],1340 ± 400
12,yPLKSM [KRCM_174/A1],1170 ± 410
13,yELGME [KS6B1_62/A1],93.3 ± 210
14,yISPRI [LCK_192/A1],14100 ± 2600
15,yQPQPG [LCK_505/A1],4320 ± 670
16,yEGQVS [ALK_1131/A1],1460 ± 340
17,yESPND [LCP2_113/A1],5420 ± 810

row,Binder,GRB2 complex binding differential signal
1,yESPNE [LCP2_128/A1],5790 ± 1000
2,yEPPPS [LCP2_145/A1],3100 ± 1000
3,yIDRPP [LCP2_173/A1],1520 ± 310
4,yFKKLN [LCP2_23/A1],146 ± 140
5,yLLGNS [LMNA _646 /A1],193 ± 310
6,yRASYY [LTK_672/A1],272 ± 260
7,yYRRGD [LTK_676/A1],576 ± 850
8,yRRGDR [LTK_677/A1],709 ± 440
9,yYISPR [LYN_193/A1],1060 ± 450
10,yRKGGC [ALK_1282/A1],967 ± 280
11,yYNNST [LYN_265/A1],4700 ± 900
12,yAVVTR [LYN_306/A1],1550 ± 270
13,yIITEY [LYN_316/A1],309 ± 320
14,yVRDPT [LYN_32/A1],4940 ± 830
15,yDIMKM [LYN_473/A1],745 ± 180
16,yETEGI [MCM6_276/A1],1240 ± 830

# Same assay, conditions: MDA-MB-231
row,Binder,GRB2 complex binding differential signal
1,yASGAS [KBTBD10_587/A1],482 ± 890
2,yVYIDP [KIT_568/A1],1060 ± 360
3,yIDPTQ [KIT_570/A1],3710 ± 2800
4,yKNLLH [KIT_703/A1],4030 ± 720
5,yCFAGK [ALK_1096/A1],208 ± 260
6,yMDMKP [KIT_721/A1],989 ± 280
7,yVVKGN [KIT_823/A1],942 ± 490
8,yDIMKT [KIT_900/A1],888 ± 470
9,ySNLAN [KIT_936/A1],6610 ± 1100
10,yVLSSR [KRCM_125/A1],1530 ± 420
11,yYPLKS [KRCM_173/A1],1100 ± 340
12,yPLKSM [KRCM_174/A1],336 ± 310
13,yELGME [KS6B1_62/A1],371 ± 270
14,yISPRI [LCK_192/A1],3310 ± 470
15,yQPQPG [LCK_505/A1],839 ± 290
16,yEGQVS [ALK_1131/A1],783 ± 390
17,yESPND [LCP2_113/A1],3250 ± 420

row,Binder,GRB2 complex binding differential signal
1,yESPNE [LCP2_128/A1],4120 ± 1000
2,yEPPPS [LCP2_145/A1],3050 ± 500
3,yIDRPP [LCP2_173/A1],400 ± 480
4,yFKKLN [LCP2_23/A1],764 ± 320
5,yLLGNS [LMNA _646 /A1],784 ± 580
6,yRASYY [LTK_672/A1],1110 ± 510
7,yYRRGD [LTK_676/A1],191 ± 310
8,yRRGDR [LTK_677/A1],62.3 ± 260
9,yYISPR [LYN_193/A1],345 ± 550
10,yRKGGC [ALK_1282/A1],127 ± 300
11,yYNNST [LYN_265/A1],2520 ± 630
12,yAVVTR [LYN_306/A1],432 ± 290
13,yIITEY [LYN_316/A1],380 ± 290
14,yVRDPT [LYN_32/A1],1850 ± 400
15,yDIMKM [LYN_473/A1],212 ± 370
16,yETEGI [MCM6_276/A1],1630 ± 430

# Same assay, conditions: T47D
row,Binder,GRB2 complex binding differential signal
1,yASGAS [KBTBD10_587/A1],625 ± 1000
2,yVYIDP [KIT_568/A1],850 ± 1000
3,yIDPTQ [KIT_570/A1],2280 ± 1000
4,yKNLLH [KIT_703/A1],27700 ± 6100
5,yCFAGK [ALK_1096/A1],180 ± 1100
6,yMDMKP [KIT_721/A1],920 ± 870
7,yVVKGN [KIT_823/A1],375 ± 770
8,yDIMKT [KIT_900/A1],268 ± 840
9,ySNLAN [KIT_936/A1],17500 ± 2300
10,yVLSSR [KRCM_125/A1],1760 ± 1200
11,yYPLKS [KRCM_173/A1],1050 ± 1000
12,yPLKSM [KRCM_174/A1],304 ± 910
13,yISPRI [LCK_192/A1],4710 ± 1200
14,yQPQPG [LCK_505/A1],722 ± 960
15,yEGQVS [ALK_1131/A1],577 ± 1000
16,yESPND [LCP2_113/A1],3470 ± 1400

row,Binder,GRB2 complex binding differential signal
1,yESPNE [LCP2_128/A1],2320 ± 1200
2,yEPPPS [LCP2_145/A1],2290 ± 1300
3,yIDRPP [LCP2_173/A1],1620 ± 990
4,yFKKLN [LCP2_23/A1],899 ± 1000
5,yLLGNS [LMNA _646 /A1],749 ± 1500
6,yRASYY [LTK_672/A1],4520 ± 1500
7,yYRRGD [LTK_676/A1],340 ± 1800
8,yRRGDR [LTK_677/A1],45.2 ± 1200
9,yYISPR [LYN_193/A1],1260 ± 1000
10,yRKGGC [ALK_1282/A1],149 ± 1000
11,yYNNST [LYN_265/A1],13600 ± 3800
12,yAVVTR [LYN_306/A1],528 ± 1100
13,yIITEY [LYN_316/A1],689 ± 1400
14,yVRDPT [LYN_32/A1],2650 ± 1100
15,yDIMKM [LYN_473/A1],371 ± 1100
16,yETEGI [MCM6_276/A1],1800 ± 1100
